Test results reported in US12091423B2, “Substituted 3,4,12,12a-tetrahydro-1H-[1,4]oxazino[3,4-c]pyrido[2,1-f][1,2,4]triazine-6,8-dione, pharmaceutical composition, method for the production and use thereof” (VIRIOM, INC., priority 2019, dated 2024).

Tested on: influenza A/Aichi/2/69 (H3N2)
Assay: microbe, parasite or virus in culture
Type: cell-based
Settings: H3N2, MDCK, read-out: EC50, A/Aichi/2/68 (H3N2)

Q: Which EC50 does the source give for `O=C1c2c(O)c(=O)ccn2N([C@@H]2c3ccc(F)c(F)c3CSc3ccsc32)[C@@H]2COCCN12` [1.3.2, (12aR)-7-hydroxy-12-[(10R)-6,7-difluoro-5,10-dihydrothieno[3,2-c][2]benzothiepin-10-yl]-3,4,12,12a-tetrahydro-1H-[1,4]oxazino[3,4-c]pyrido[2,1-f][1,2,4]triazine-6,8-dione] here?
A: 0.23 nM
